Measurements as given in PubChem BioAssay AID1508623 (National Center for Advancing Translational Sciences (NCATS), 2021).
Among all 48,000 compounds or so, about 450 (0.94%) were called active. About 19% were inconclusive and are not listed. Calls follow the shape of the dose curve; as a rule, active = well fitted inhibition curve with a large enough effect; inconclusive = small, poorly fitted or top-dose-only effect; inactive = no such curve, though single readings can be large or run the other way. This is one part of the list.

Assay: Primary qHTS for Identification of Small Molecule Inhibitors of Huntingtin Promoter Activity; also: nearly all actives have a fitted effect of over 50% in size
Conditions: HEK293 HTT promoter firefly luciferase reporter (activity 0% = vehicle and -100% = no light), 24 h; series mostly up to 57.5 µM; activity change, negative = inhibition: at the top concentration
Method in brief: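 Firefly luciferase signal from promoter-reporter HEK293 cells was scaled between vehicle (0%) and zero RLU (-100%). Compounds were tested at final concentrations of up to 57.5 uM over 24 h at 37 degrees C. PTC124 at 50 uM final served as control inhibitor.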
Potency is read from the fitted curve at half-maximal effect.

| Compound | Potency | activity change, negative = inhibition |
| --- | --- | --- |
| CCOC(=O)N1CCc2c(sc(NCc3cccs3)c2C(=O)Nc2ccc(OC)cc2OC)C1 | active: 7.94 µM | – |
| CCCCN(C)CCNC(=O)CN1C(=O)CSc2ccc(S(=O)(=O)N3CCCCC3)cc21 | – | inactive: -1.24% |
| O=c1c(S(=O)(=O)c2ccccc2)cn(Cc2cccc(F)c2)c2cc(N3CCCC3)c(F)cc12 | – | inactive: -7.96% |
| Cc1ccc2oc(=O)n(Cc3ccccc3Cl)c2c1 | – | inactive: 4.82% |
| Cc1ccc2oc(-c3cc(NC(=O)c4oc5ccccc5c4C)ccc3Cl)nc2c1 | – | inactive: -12.9% |
| CCc1ccc(OCC(=O)Nc2cc(-c3nc4cc(C)ccc4o3)ccc2C)cc1 | – | inactive: -2.16% |
| CCCNC(=O)C1CCC(CNS(=O)(=O)c2ccc3c(c2)CC(C)N3C(C)=O)CC1 (configuration not stated) | – | inactive: -14% |
| CN(Cc1ccc(F)cc1)S(=O)(=O)c1nnc(NC(=O)c2ccccc2)s1 | – | inactive: -10% |
| Cc1ccc(NC(=O)c2oc3ccccc3c2NC(=O)C23CC4CC(CC(C4)C2)C3)cc1 | – | inactive: -11.7% |
| Cc1ccc(C(=O)NCc2ccccc2)cc1NC(=O)c1nsc2ccccc12 | – | inactive: -0.455% |
| CCOC(=O)c1c(C)[nH]c(C)c1S(=O)(=O)N1CCC(C(=O)Nc2ccc(C)c(N(C)C)c2)CC1 | – | inactive: -15.5% |
| Cn1cc(C(=O)NCCc2ccccc2)c(=O)c2cc(S(=O)(=O)N3CCCCC3)ccc21 | – | inactive: -2.52% |
| CCc1ccc(N2C(=O)CN(S(=O)(=O)CC)CC2(C)C(=O)NC2CCCCC2)cc1 (configuration not stated) | – | inactive: -1.72% |
| O=C(CNC(=O)c1ccccc1)OCc1cc(=O)n2nc(C3CC3)sc2n1 | – | inactive: -13.8% |
| CCC1CCCCN1C(=O)CCS(=O)(=O)c1cc2c(cc1C)NC(=O)CO2 (configuration not stated) | – | inactive: -5.8% |
| O=c1c2oc3ccccc3c2n(Cc2ccc(Cl)cc2)c(=O)n1Cc1ccccc1 | – | inactive: -16% |
| CC=CCC=CCCC(=O)[C@H]1O[C@@H]1C(N)=O | – | inactive: 6.54% |
| Cc1ccc(Nc2c(-c3ccc(C)o3)nc3cccc(C)n23)cc1 | – | inactive: 10.2% |
| Cc1cc(C)cc(-n2c(SCC(=O)N3CCCCCC3)nc3c([nH]c4ccccc43)c2=O)c1 | – | inactive: -15.2% |
| O=C(Nc1cc(F)ccc1F)c1ccc(CN2CC(=O)N3CCCCC3C2=O)cc1 (configuration not stated) | – | inactive: -23.2% |
| COc1ccc(-c2cc(=O)oc3c4c(ccc23)OCN(Cc2ccccc2)C4)cc1 | – | inactive: -21.2% |
| COc1cc(Cl)c(C)cc1NC(=O)Cn1c(C)c2cnn(-c3ccccc3)c(=O)c2c1C | – | inactive: -7.53% |
| C=C(C)Cn1c(SCC(=O)c2ccccc2)nc2sc3c(c2c1=O)CCCC3 | – | inactive: -17% |
| CC(=O)Nc1c(C)nn(-c2ccccc2)c1N1CCC(C(=O)NCc2ccc(F)cc2)CC1 | – | inactive: -10.8% |

| Compound | Potency | activity change, negative = inhibition |
| --- | --- | --- |
| CC(=O)c1ccc(NC(=O)CSc2nnc(N)s2)cc1 | – | inactive: 9.15% |
| CCOCCn1c(N2CCCN(C)CC2)nc2ccccc21 | – | inactive: -1.71% |
| COc1cc2c(cc1NC(=O)COc1ccc(Cl)cc1)oc1ccccc12 | – | inactive: -6.86% |
| COc1ccc(NC(=O)Cn2c(=O)n(Cc3ccco3)c(=O)c3oc4ccccc4c32)cc1Cl | – | inactive: -5.88% |
| COc1ccc(-n2ncc3c2ncn2nc(Cc4ccccc4)nc32)cc1 | – | inactive: -17.8% |
| Cc1ccccc1CNCc1c(C(=O)O)c(C)n(Cc2ccc(F)cc2Cl)c1C | – | inactive: -13.6% |
| Cc1cccn2c(=O)c(-c3nnn[nH]3)cnc12 | – | inactive: -7.21% [at 25.2 µM] |
| Cc1nnc(N2CCC(C(=O)NC(C)C)CC2)c2nn(-c3ccccc3)c(C)c12 | – | inactive: -5.84% |
| Cc1ccc(-c2noc(-c3nnn(-c4ccc(Br)cc4F)c3C)n2)cc1 | – | inactive: 8.42% |
| O=C(Nc1ccc(F)cc1)c1cc2cc3ccc(Cl)cc3nc2o1 | – | inactive: -3.79% |
| CCc1c(C)sc2c1CCN(C(=O)Nc1cc(C)ccc1C)C2c1ccc(OC)cc1 (configuration not stated) | – | inactive: -27.5% |
| COc1ccc(-n2ncc(C(=O)NCCN3CCOCC3)c2C2CCN(C(=O)OC(C)(C)C)CC2)cc1 | – | inactive: 2.88% |
| COc1ccc(OC)c(CCNC(=O)Cn2nc(C)n3c(cc4sccc43)c2=O)c1 | – | inactive: 3.8% |
| CC[C@H](C)C(=O)O[C@H]1C[C@H](O)C=C2C=C[C@H](C)[C@H](CC[C@@H](O)C[C@@H](O)CC(=O)O)[C@H]21 | – | inactive: 6.2% |
| COc1cc(OC)c(NC(=O)N2CCc3cc(S(=O)(=O)N4CCC(C)CC4)ccc32)cc1Cl | – | inactive: -15.5% |
| O=c1oc2ccc3ccccc3c2cc1-c1nnc(Nc2cccc(C(F)(F)F)c2)s1 | – | inactive: 18.4% |
| CCc1ccc(C=C2SC(=S)NC2=O)cc1 | – | inactive: 29.9% |
| O=C(c1cc2c(s1)-c1ccccc1OC2)N1CCN(c2ccc(F)cc2)CC1 | – | inactive: -23.9% |
| CC1CCC(NC(=O)Cn2ncc3c4ccccc4n(Cc4ccc(F)cc4)c3c2=O)CC1 (configuration not stated) | – | inactive: -9.41% |
| Cc1ccc(CN(C(=O)COc2ccc([N+](=O)[O-])cc2)c2ccccn2)o1 | – | inactive: -28.5% |
| Cc1ccc(Nc2ncc(C(=O)Nc3ccc(F)cc3F)c3ccccc23)cc1Cl | – | inactive: -13% |
| CC(=O)c1ccc(NC(=O)CSc2ccc3nnc(CCNS(=O)(=O)c4ccc(C)cc4)n3n2)cc1 | – | inactive: 0.315% |
| CC(=O)c1cccc(NC(=O)C2CCN(S(=O)(=O)c3ccccc3)CC2)c1 | – | inactive: -22.1% |
